PubChem BioAssay AID1345082 (National Center for Advancing Translational Sciences (NCATS), 2018)
About 4,000 (4.3%) of roughly 94,000 compounds were called active. This list was built around the results that the source calls inconclusive (neither active nor inactive); the mix of calls is not that of the screen. Calls come from the whole dose curve; as a rule, active = well fitted inhibition curve with a large enough effect; inconclusive = small, poorly fitted or top-dose-only effect; inactive = no such curve, though single readings can be large or run the other way. Where the call is inconclusive, the potency comes from a doubtful curve fit.

Experiment: Cytotoxic Profiling in NIH 3T3 Cell Line of Diverse Libraries Using Quantitative High-Throughput Screening; note: nearly all actives have a fitted effect of over 55% in size
Settings: NIH 3T3 viability, CellTiter-Glo ATP luminescence, 48-72 h; activity change, negative = cytotoxicity: at 96.7 µM (top of the series) unless noted; series mostly up to 96.7 µM
How it was run: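 Cytotoxicity was measured by CellTiter-Glo ATP luminescence after 48 or 72 h compound exposure at 37 °C. Mouse NIH 3T3 fibroblasts were seeded at 400 cells/well and dosed by 23 nL pin transfer.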
% is set by controls: 0 for no effect and ±100 for the full control effect; potency is the fitted concentration of half-maximal effect; tags give direction and shape of the fitted curve.

SMILES	Potency	activity change, negative = cytotoxicity	outcome
Cc1cc(=O)n(CC(=O)Nc2ccc(Cl)cc2)c(N2CCC(C)CC2)n1	inconclusive: 44.7 µM [inhibitor, partial curve, poor fit]		
CCn1cc(S(=O)(=O)N2CC[C@H](CNC(C)=O)[C@H](N(C)C)C2)cn1		inactive: -3.26%	
Cc1ccc(CN2CCc3ncc(C(=O)NCc4ccccc4)n3CC2)o1	inconclusive: 10 µM [inhibitor, full curve, poor fit]		
Cc1ccc(CNC(=O)c2ccc3c(c2)N(C(=O)c2ccc(F)cc2)CC3)o1	inconclusive: 44.7 µM [inhibitor, partial curve, poor fit]		
Cc1ccoc1C(=O)N1C[C@@H](COCC2CC2)[C@H](c2ccncc2)C1	inconclusive: 56.2 µM [inhibitor, partial curve, poor fit]		
COc1cccc(NC(=O)Cn2c(=O)c(-c3noc(C)n3)c3n(c2=O)CCCC3)c1		inactive: -8.51%	
O=C1NC(=NC2CCCCC2)C2(CCCN(CC3CCCCC3)C2)N1c1cc(F)cc(F)c1 (configuration not stated)	active: 28.2 µM		
O=C(NCc1ccccc1F)c1ccc2oc(-c3ccnc(Cl)c3)nc2c1		inactive: -3.68% [at 138 µM]	
COc1ccc(CCN2CCC3(C2)C(=O)N(C)C(=O)N3C)cc1 (configuration not stated)		inactive: -24.2%	
COc1ccc2c(c1)C(C(=O)Nc1ccc(C)c([S+](=O)([O-])N3CCOCC3)c1)=CC(C)(C)CO2	inconclusive: 22.4 µM [inhibitor, full curve]		
COc1ccc(C(=O)N2CCC(C(=O)N3CCC(N4Cc5ccccc5C4=O)CC3)CC2)cc1	inactive		
Cc1cnc(CCNC(=O)COc2ccccc2)n1C1CCC1		inactive: -19.4%	
O=[S+]1([O-])NC2(CCN(Cc3ccc(Cl)cc3)C2)COc2ncccc21 (configuration not stated)			inactive
O=C(c1ccc(Br)cc1)N1CCc2[nH]nc(C(=O)N3CCOCC3)c2C1		inactive: 3.31%	
O=C(Nc1ccc(Br)c(F)c1)c1cnc(-c2ccccc2)nc1-c1ccncc1	active: 25.1 µM		
COc1ccc(-c2cccc(C(=O)N3CCN(C(=O)c4ccc(Cl)cc4)CC3)c2)nn1	inconclusive: 44.7 µM [inhibitor, partial curve, poor fit]		
COCCOc1ccc2c(n1)CCN(C(=O)c1ccsc1)C2	inconclusive: 35.5 µM [inhibitor, partial curve]		
CC(C)CNC(=O)c1ccc2nnc(-c3ccc(OC(F)(F)F)cc3)n2c1	inconclusive: 39.8 µM [inhibitor, partial curve, poor fit]		
COc1ccc(CN2C(=O)CO[C@H]3CN(c4nccc(C)n4)C[C@H]32)cc1		inactive: -17.9% [at 174 µM]	
CCOc1cc(-c2nc(C3CC(=O)N(c4ccc(OC)cc4)C3)no2)cc(OCC)c1OCC (configuration not stated)	inconclusive: 44.7 µM [inhibitor, partial curve, poor fit]		
Cc1nc(C2CC(O)C2)cc(N(C)Cc2ccccc2-n2cccn2)n1 (configuration not stated)	inconclusive: 79.4 µM [inhibitor, single point]		

SMILES	Potency	activity change, negative = cytotoxicity	outcome
O=C(NCc1ccc2c(c1)OCO2)C1CCN(c2cc(C(F)(F)F)ncn2)CC1	inconclusive: 28.2 µM [inhibitor, partial curve]		
CN1c2cc(C(=O)Nc3ccc(C(N)=O)cc3)ccc2C(=O)N2CCCCCC21 (configuration not stated)	inconclusive: 50.1 µM [inhibitor, partial curve, poor fit]		
Cc1ccccc1Oc1c(CCC(=O)NCC2CCCO2)c(C)nn1-c1ccc(F)cc1 (configuration not stated)	inconclusive: 44.7 µM [inhibitor, partial curve, poor fit]		
CN(C)CCNC(=O)C(C)(C)Oc1nn(Cc2cccc(Cl)c2)c2ccccc12	active: 10 µM		
CC1=C[C@@H](CN(CC2CC2)CC2CC2)[C@H](C(C)C)C[C@H]1Cc1nc2ccncc2[nH]1	inconclusive: 112 µM [inhibitor, single point]		
COc1ccccc1-c1cccc(CN2CCCC(C(=O)NCc3cccnc3)C2)c1 (configuration not stated)	active: 35.5 µM		
CC(=O)NC1(C)CCN(Cc2cccc(Nc3cccc(Cl)c3)c2)C1 (configuration not stated)	active: 44.7 µM		
CCc1ccc(N2CC(c3noc(-c4ccc(C)nc4)n3)CC2=O)cc1 (configuration not stated)	inconclusive: 44.7 µM [inhibitor, partial curve, poor fit]		
COc1ccccc1C(=O)N1CCCn2nc(C)c(-c3ccnn3C(C)C)c21	inconclusive: 112 µM [inhibitor, partial curve, poor fit]		
COc1ccccc1-c1ccc(CN2CCCCC2C(=O)NCc2cccc(C(F)(F)F)c2)cc1 (configuration not stated)	inconclusive: 39.8 µM [inhibitor, partial curve]		
COc1ccc(C2=NOC3(CCN(C(=O)c4ccc5c(c4)OCO5)C3)C2)cc1 (configuration not stated)	inconclusive: 44.7 µM [inhibitor, partial curve, poor fit]		
COCC(=O)N1CCCC1C(=O)N1CCC(N2Cc3ccccc3C2=O)CC1 (configuration not stated)		inactive: -11%	
COc1cccc(CN2CCOC[C@H](Oc3ccccc3)C2)c1	inconclusive: 89.1 µM [inhibitor, partial curve]		
Cc1cc(-c2cc3c(cn2)CN(Cc2cccc(F)c2)CCN3)ccn1	inconclusive: 56.2 µM [inhibitor, partial curve, poor fit]		
COc1cccc(-c2cccc(C(=O)N3CCCC3C(=O)N3CCN(c4ncccn4)CC3)c2)c1 (configuration not stated)		inactive: -18.1%	
NC(=O)c1cccc(CN2CCCC23Cc2ccccc2N(C(=O)c2ccc(Cl)cc2)C3)c1 (configuration not stated)	inconclusive: 70.8 µM [inhibitor, single point]		
Cc1ccc(CNC(=O)c2ccc3c(c2)CN(Cc2cccc(F)c2F)CCO3)cc1	inconclusive: 50.1 µM [inhibitor, partial curve, poor fit]		
CC(NC(=O)c1cc2n(n1)CC(c1ccc(Cl)cc1)OC2)c1ccc(F)cc1 (configuration not stated)	inconclusive: 50.1 µM [inhibitor, partial curve, poor fit]		
CO[C@H]1[C@H](NC(=O)c2ccc3c(c2)OCO3)c2ccccc2C12CCNCC2		inactive: -20.1%	
COc1ccc(C(=O)N2CCC3(CC2)C(=NC2CCCCC2)NC(=O)N3c2cccc(OC)c2)cc1	active: 28.2 µM		
CC(CN1CC2(CCN(C(=O)c3ccc(=O)n(C)n3)CC2)OC1=O)c1ccccc1 (configuration not stated)		inactive: -33.2%	
